# Out of some 270,000 compounds screened, about 5,800 (2.1%) were called active. This list was built around the results that the source calls inconclusive (neither active nor inactive); the mix of calls is not that of the screen. The call rests on the fitted dose curve; in most records, active means well fitted inhibition curve with a large enough effect; inconclusive means small, poorly fitted or top-dose-only effect; inactive means flat fitted curve, though single readings scatter. A potency beside an inconclusive call is a rough fit, not a confirmed value.
# Target: Microtubule-associated protein tau (Homo sapiens) (UniProt P10636)
# Assay: qHTS for Inhibitors of Tau Fibril Formation, Thioflavin T Binding; further: nearly all actives have a fitted effect of over 55% in size
# Conditions: recombinant tau K18 P301L (four-repeat tau fragment), heparin-induced fibrillization, ThT fluorescence; series mostly up to 57.4 µM
# Summary of the method: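 Heparin-induced (20 uM) aggregation of recombinant human K18 P301L tau, 15 uM unlabeled with 0.24 uM labeled, pH 7 acetate buffer, 6 hr at 37 C with compound. Fibrils quantified by 30 uM ThT fluorescence after 1 hr ambient incubation.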
# Potency means the concentration at half of the fitted maximal effect; tags describe the fitted curve by direction and shape.
# Sequence of UniProt P10636 (P10636 whole entry, looked up): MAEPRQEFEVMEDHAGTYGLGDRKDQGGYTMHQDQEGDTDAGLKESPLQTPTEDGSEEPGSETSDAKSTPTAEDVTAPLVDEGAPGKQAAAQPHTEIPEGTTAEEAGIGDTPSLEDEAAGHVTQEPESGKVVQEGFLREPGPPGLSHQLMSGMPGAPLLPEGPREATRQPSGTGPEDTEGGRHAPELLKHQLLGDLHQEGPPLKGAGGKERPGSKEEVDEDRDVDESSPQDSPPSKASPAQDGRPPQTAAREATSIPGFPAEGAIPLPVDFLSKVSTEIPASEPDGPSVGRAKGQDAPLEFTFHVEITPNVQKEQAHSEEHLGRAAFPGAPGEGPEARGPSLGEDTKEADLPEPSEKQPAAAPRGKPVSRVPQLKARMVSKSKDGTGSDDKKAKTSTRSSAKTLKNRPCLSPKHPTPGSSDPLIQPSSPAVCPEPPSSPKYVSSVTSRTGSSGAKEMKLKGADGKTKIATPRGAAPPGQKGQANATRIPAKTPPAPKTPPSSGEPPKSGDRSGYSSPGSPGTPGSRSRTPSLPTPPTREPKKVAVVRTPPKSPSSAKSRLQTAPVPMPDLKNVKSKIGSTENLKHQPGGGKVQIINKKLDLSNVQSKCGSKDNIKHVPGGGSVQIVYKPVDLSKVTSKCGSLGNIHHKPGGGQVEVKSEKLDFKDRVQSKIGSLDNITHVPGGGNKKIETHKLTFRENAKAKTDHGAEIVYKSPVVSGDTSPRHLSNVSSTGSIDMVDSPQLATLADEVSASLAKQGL
row,SMILES,Potency
1,COc1ccc(OCC(=O)Nc2ccc(N3CCN(C(=O)c4ccco4)CC3)cc2)cc1,"inconclusive: 0.398 µM [inhibitor, partial curve]"
2,CCOC(=O)c1c(C)[nH]c(C(=O)COC(=O)c2ccc(O)cc2O)c1C,"inconclusive: 17.8 µM [inhibitor, partial curve, poor fit]"
3,COc1cc2nc(Nc3cccc(F)c3)nc(N)c2cc1OC,"inconclusive: 4.47 µM [inhibitor, full curve]"
4,CC[C@@H]1CC=C[C@H]2[C@H]1C(=O)N(Cc1ccccc1)[C@H]2c1ccoc1,"inconclusive: 25.1 µM [inhibitor, single point]"
5,CC(=O)Nc1ccc(N/C(C)=C/C(=O)c2cccnc2)cc1,"inconclusive: 17.8 µM [inhibitor, single point]"
6,CC(C)Cn1cc(NC(=O)N2CCN(c3cccc(C(F)(F)F)c3)CC2)c2ccccc2c1=O,"inconclusive: 8.91 µM [inhibitor, partial curve]"
7,Cn1c(=O)c2c(nc(N/N=C/c3cccs3)n2Cc2ccccc2)n(C)c1=O,inactive
8,CC1=C(C#N)C(c2ccccc2)C2=C(N1)c1ccccc1C2=O (centres undefined),active: 12.6 µM
9,CCCCSc1nnc2c(n1)OC(c1ccc(Br)s1)Nc1ccccc1-2 (centres undefined),"inconclusive: 25.1 µM [inhibitor, single point]"
10,COc1ccc(OC)c(NC(=O)C23CCC(C)(C(=O)C2)C3(C)C)c1 (centres undefined),inactive
11,S=C(Nc1ccc2nsnc2c1)NC1CCCCC1,active: 28.2 µM
12,Cc1ccc(-n2c(C)cc(C=C(C#N)C#N)c2C)cc1,"inconclusive: 25.1 µM [inhibitor, partial curve]"
13,Cc1ccc(-c2nc(CSc3nnc(C)n4c3cc3occc34)c(C)o2)cc1,inactive
14,O=C(Nc1ccc(Cl)cc1)c1ccc2nsnc2c1,"inconclusive: 11.2 µM [inhibitor, partial curve]"
15,Cn1cc(Br)c(C(=O)N/N=C/c2cccc(OC3CSC3)c2)n1,"inconclusive: 25.1 µM [inhibitor, single point]"
16,CCCCSCCCNC(=O)CS(=O)Cc1nc(-c2cccc(C)c2)oc1C (centres undefined),"inconclusive: 15.8 µM [inhibitor, partial curve, poor fit]"
17,N/C(=N\OC(=O)c1cccc(Cn2cc(C(F)(F)F)ccc2=O)c1)c1ccccc1,"inconclusive: 14.1 µM [inhibitor, single point]"
18,COC(=O)c1sccc1NC(=O)c1c(-c2ccccc2)noc1C,inactive
19,O=C(CCN1C(=O)/C(=C/C=C/c2ccccc2)SC1=S)Nc1cccnc1,"inconclusive: 10 µM [inhibitor, partial curve]"

# — PubChem BioAssay AID1460 (National Center for Advancing Translational Sciences (NCATS), 2008)
